# Results from the supplement of paper PMC8728848.
# The list shows a part of the results.
# B1: MpAFP NterminalRI GFP (Marinomonas primoryensis) (protein)
# chain: MSDNQFPFATLGNAIGFITKLDGSVTVQSIDGQERVLKLGDPIFFGETVLTGGSGSVTIAFVDGTDVVIGGDSIVEMTDEIYNTGDNEDLVADSSSEIDALQNAILAGDDPTLIQDAPAAGNTLADQQRVDVSIERNDNSAQAGFGVDTQSSLPTYGYDTDNGNGGQATEREYSAPSLSRTLNQSPLLEHHHHHH
# Experiments:
# Assay in all cases: glycan array binding signal (z-score within array); higher = stronger binding
# Conditions in all cases: glycan notation: IUPAC condensed, linker removed
# [1] = target: Neu5Ac(a2-6)Gal(b1-4)GlcNAc(b1-2)Man(a1-3)[Neu5Ac(a2-3)Gal(b1-4)GlcNAc(b1-2)Man(a1-6)]Man(b1-4)GlcNAc(b1-4)GlcNAc
# Procedure, shortened: (§1)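 Negative Z-scores can be read as non-binding. The Z-score is calculated within each array and then averaged across arrays of one protein sequence at different concentrations or buffers and across linkers. Arrays, 3228 in all, were curated from the Consortium for Functional Glycomics database and kept only where the protein sequence was available.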
# [2] = target: Neu5Ac(a2-6)Gal(b1-4)GlcNAc(b1-2)Man(a1-3)[Neu5Ac(a2-6)Gal(b1-4)GlcNAc(b1-2)Man(a1-6)]Man(b1-4)GlcNAc(b1-4)GlcNAc
# Procedure, shortened: as §1
# [3] = target: Neu5Ac(a2-6)Gal(b1-4)GlcNAc(b1-2)Man(a1-3)[Neu5Ac(a2-6)Gal(b1-4)GlcNAc(b1-2)Man(a1-6)]Man(b1-4)GlcNAc(b1-4)[Fuc(a1-6)]GlcNAc
# Procedure, shortened: as §1
# [4] = target: Neu5Ac(a2-6)Gal(b1-4)GlcNAc(b1-2)Man(a1-6)Man(b1-4)GlcNAc(b1-4)GlcNAc
# Procedure, shortened: as §1
# [5] = target: Neu5Ac(a2-6)Gal(b1-4)GlcNAc(b1-2)Man(a1-6)[Gal(b1-4)GlcNAc(b1-2)Man(a1-3)]Man(b1-4)GlcNAc(b1-4)GlcNAc
# Procedure, shortened: as §1
# [6] = target: Neu5Ac(a2-6)Gal(b1-4)GlcNAc(b1-2)Man(a1-6)[GlcNAc(b1-2)Man(a1-3)]Man(b1-4)GlcNAc(b1-4)GlcNAc
# Procedure, shortened: as §1
# [7] = target: Neu5Ac(a2-6)Gal(b1-4)GlcNAc(b1-2)Man(a1-6)[Man(a1-3)]Man(b1-4)GlcNAc(b1-4)GlcNAc
# Procedure, shortened: as §1
# [8] = target: Neu5Ac(a2-6)Gal(b1-4)GlcNAc(b1-2)[Neu5Ac(a2-6)Gal(b1-4)GlcNAc(b1-4)]Man(a1-3)[GlcNAc(b1-4)][Neu5Ac(a2-6)Gal(b1-4)GlcNAc(b1-2)[Neu5Ac(a2-6)Gal(b1-4)GlcNAc(b1-6)]Man(a1-6)]Man(b1-4)GlcNAc(b1-4)GlcNAc
# Procedure, shortened: as §1
# [9] = target: Neu5Ac(a2-6)Gal(b1-4)GlcNAc(b1-2)[Neu5Ac(a2-6)Gal(b1-4)GlcNAc(b1-4)]Man(a1-3)[GlcNAc(b1-4)][Neu5Ac(a2-6)Gal(b1-4)GlcNAc(b1-4)Man(a1-6)]Man(b1-4)GlcNAc(b1-4)GlcNAc
# Procedure, shortened: as §1
# [10] = target: Neu5Ac(a2-6)Gal(b1-4)GlcNAc(b1-2)[Neu5Ac(a2-6)Gal(b1-4)GlcNAc(b1-6)]Man(a1-6)[Neu5Ac(a2-6)Gal(b1-4)GlcNAc(b1-2)Man(a1-3)][GlcNAc(b1-4)]Man(b1-4)GlcNAc(b1-4)GlcNAc
# Procedure, shortened: as §1
# [11] = target: Neu5Ac(a2-6)Gal(b1-4)GlcNAc(b1-3)Gal(b1-3)GlcNAc
# Procedure, shortened: as §1
# [12] = target: Neu5Ac(a2-6)Gal(b1-4)GlcNAc(b1-3)Gal(b1-4)GlcNAc
# Procedure, shortened: as §1
# [13] = target: Neu5Ac(a2-6)Gal(b1-4)GlcNAc(b1-3)Gal(b1-4)GlcNAc(b1-2)Man(a1-3)[Neu5Ac(a2-6)Gal(b1-4)GlcNAc(b1-3)Gal(b1-4)GlcNAc(b1-2)Man(a1-6)]GalNAc
# Procedure, shortened: as §1
# [14] = target: Neu5Ac(a2-6)Gal(b1-4)GlcNAc(b1-3)Gal(b1-4)GlcNAc(b1-3)Gal(b1-4)GlcNAc
# Procedure, shortened: as §1
# [15] = target: Neu5Ac(a2-6)Gal(b1-4)GlcNAc(b1-3)Gal(b1-4)GlcNAc(b1-3)Gal(b1-4)GlcNAc(b1-2)Man(a1-3)[Neu5Ac(a2-6)Gal(b1-4)GlcNAc(b1-3)Gal(b1-4)GlcNAc(b1-3)Gal(b1-4)GlcNAc(b1-2)Man(a1-6)]GalNAc
# Procedure, shortened: as §1
# [16] = target: Neu5Ac(a2-6)Gal(b1-4)GlcNAc(b1-3)Gal(b1-4)GlcNAc(b1-3)GalNAc
# Procedure, shortened: as §1
# [17] = target: Neu5Ac(a2-6)Gal(b1-4)GlcNAc(b1-3)Gal(b1-4)GlcNAc(b1-3)[Neu5Ac(a2-6)Gal(b1-4)GlcNAc(b1-3)Gal(b1-4)GlcNAc(b1-6)]GalNAc
# Procedure, shortened: as §1
# [18] = target: Neu5Ac(a2-6)Gal(b1-4)GlcNAc(b1-3)Gal(b1-4)GlcNAc(b1-6)[Gal(b1-3)]GalNAc
# Procedure, shortened: as §1
# [19] = target: Neu5Ac(a2-6)Gal(b1-4)GlcNAc(b1-3)Gal(b1-4)[Fuc(a1-3)]GlcNAc(b1-3)Gal(b1-4)[Fuc(a1-3)]GlcNAc
# Procedure, shortened: as §1
# [20] = target: Neu5Ac(a2-6)Gal(b1-4)GlcNAc(b1-3)GalNAc
# Procedure, shortened: as §1
# [21] = target: Neu5Ac(a2-6)Gal(b1-4)GlcNAc(b1-3)[Neu5Ac(a2-6)Gal(b1-4)GlcNAc(b1-6)]GalNAc
# Procedure, shortened: as §1
# [22] = target: Neu5Ac(a2-6)Gal(b1-4)GlcNAc(b1-6)GalNAc
# Procedure, shortened: as §1
# [23] = target: Neu5Ac(a2-6)Gal(b1-4)GlcNAc(b1-6)[Gal(b1-3)GlcNAc(b1-3)]Gal(b1-4)Glc
# Procedure, shortened: as §1
# [24] = target: Neu5Ac(a2-6)Gal(b1-4)GlcNAc(b1-6)[Gal(b1-3)]GalNAc
# Procedure, shortened: as §1
# [25] = target: Neu5Ac(a2-6)Gal(b1-4)GlcNAc6S
# Procedure, shortened: as §1
# [26] = target: Neu5Ac(a2-6)GalNAc
# Procedure, shortened: as §1
# [27] = target: Neu5Ac(a2-6)GalNAc(b1-4)GlcNAc
# Procedure, shortened: as §1
# [28] = target: Neu5Ac(a2-6)GalNAc(b1-4)GlcNAc6S
# Procedure, shortened: as §1
# [29] = target: Neu5Ac(a2-6)GlcNAc(b1-4)GlcNAc
# Procedure, shortened: as §1
# [30] = target: Neu5Ac(a2-6)GlcNAc(b1-4)GlcNAc(b1-4)GlcNAc
# Procedure, shortened: as §1
binder,measurement,setting,value
B1,glycan array binding signal (z-score),[1],-0.415
same,glycan array binding signal (z-score),[2],0.228
same,glycan array binding signal (z-score),[3],1.26
same,glycan array binding signal (z-score),[4],-0.385
same,glycan array binding signal (z-score),[5],-0.379
same,glycan array binding signal (z-score),[6],-0.309
same,glycan array binding signal (z-score),[7],-0.379
same,glycan array binding signal (z-score),[8],-0.293
same,glycan array binding signal (z-score),[9],-0.301
same,glycan array binding signal (z-score),[10],-0.087
same,glycan array binding signal (z-score),[11],-0.373
same,glycan array binding signal (z-score),[12],-0.602
same,glycan array binding signal (z-score),[13],-0.301
same,glycan array binding signal (z-score),[14],0.403
same,glycan array binding signal (z-score),[15],1.24
same,glycan array binding signal (z-score),[16],-0.295
same,glycan array binding signal (z-score),[17],-0.027
same,glycan array binding signal (z-score),[18],-0.349
same,glycan array binding signal (z-score),[19],-0.212
same,glycan array binding signal (z-score),[20],-0.371
same,glycan array binding signal (z-score),[21],-0.449
same,glycan array binding signal (z-score),[22],0.027
same,glycan array binding signal (z-score),[23],-0.149
same,glycan array binding signal (z-score),[24],-0.144
same,glycan array binding signal (z-score),[25],-0.409
same,glycan array binding signal (z-score),[26],-0.388
same,glycan array binding signal (z-score),[27],-0.549
same,glycan array binding signal (z-score),[28],-0.222
same,glycan array binding signal (z-score),[29],-0.431
same,glycan array binding signal (z-score),[30],0.523
